In article PMC12510031 one finds binding data, which are given here for eight substances.

The chains behind the UniProt entries cited, without tags or fusion partners. Where a name states a change or a piece, a line headed by the entry shows the natural chain unless it says otherwise.
UniProt Q5S007: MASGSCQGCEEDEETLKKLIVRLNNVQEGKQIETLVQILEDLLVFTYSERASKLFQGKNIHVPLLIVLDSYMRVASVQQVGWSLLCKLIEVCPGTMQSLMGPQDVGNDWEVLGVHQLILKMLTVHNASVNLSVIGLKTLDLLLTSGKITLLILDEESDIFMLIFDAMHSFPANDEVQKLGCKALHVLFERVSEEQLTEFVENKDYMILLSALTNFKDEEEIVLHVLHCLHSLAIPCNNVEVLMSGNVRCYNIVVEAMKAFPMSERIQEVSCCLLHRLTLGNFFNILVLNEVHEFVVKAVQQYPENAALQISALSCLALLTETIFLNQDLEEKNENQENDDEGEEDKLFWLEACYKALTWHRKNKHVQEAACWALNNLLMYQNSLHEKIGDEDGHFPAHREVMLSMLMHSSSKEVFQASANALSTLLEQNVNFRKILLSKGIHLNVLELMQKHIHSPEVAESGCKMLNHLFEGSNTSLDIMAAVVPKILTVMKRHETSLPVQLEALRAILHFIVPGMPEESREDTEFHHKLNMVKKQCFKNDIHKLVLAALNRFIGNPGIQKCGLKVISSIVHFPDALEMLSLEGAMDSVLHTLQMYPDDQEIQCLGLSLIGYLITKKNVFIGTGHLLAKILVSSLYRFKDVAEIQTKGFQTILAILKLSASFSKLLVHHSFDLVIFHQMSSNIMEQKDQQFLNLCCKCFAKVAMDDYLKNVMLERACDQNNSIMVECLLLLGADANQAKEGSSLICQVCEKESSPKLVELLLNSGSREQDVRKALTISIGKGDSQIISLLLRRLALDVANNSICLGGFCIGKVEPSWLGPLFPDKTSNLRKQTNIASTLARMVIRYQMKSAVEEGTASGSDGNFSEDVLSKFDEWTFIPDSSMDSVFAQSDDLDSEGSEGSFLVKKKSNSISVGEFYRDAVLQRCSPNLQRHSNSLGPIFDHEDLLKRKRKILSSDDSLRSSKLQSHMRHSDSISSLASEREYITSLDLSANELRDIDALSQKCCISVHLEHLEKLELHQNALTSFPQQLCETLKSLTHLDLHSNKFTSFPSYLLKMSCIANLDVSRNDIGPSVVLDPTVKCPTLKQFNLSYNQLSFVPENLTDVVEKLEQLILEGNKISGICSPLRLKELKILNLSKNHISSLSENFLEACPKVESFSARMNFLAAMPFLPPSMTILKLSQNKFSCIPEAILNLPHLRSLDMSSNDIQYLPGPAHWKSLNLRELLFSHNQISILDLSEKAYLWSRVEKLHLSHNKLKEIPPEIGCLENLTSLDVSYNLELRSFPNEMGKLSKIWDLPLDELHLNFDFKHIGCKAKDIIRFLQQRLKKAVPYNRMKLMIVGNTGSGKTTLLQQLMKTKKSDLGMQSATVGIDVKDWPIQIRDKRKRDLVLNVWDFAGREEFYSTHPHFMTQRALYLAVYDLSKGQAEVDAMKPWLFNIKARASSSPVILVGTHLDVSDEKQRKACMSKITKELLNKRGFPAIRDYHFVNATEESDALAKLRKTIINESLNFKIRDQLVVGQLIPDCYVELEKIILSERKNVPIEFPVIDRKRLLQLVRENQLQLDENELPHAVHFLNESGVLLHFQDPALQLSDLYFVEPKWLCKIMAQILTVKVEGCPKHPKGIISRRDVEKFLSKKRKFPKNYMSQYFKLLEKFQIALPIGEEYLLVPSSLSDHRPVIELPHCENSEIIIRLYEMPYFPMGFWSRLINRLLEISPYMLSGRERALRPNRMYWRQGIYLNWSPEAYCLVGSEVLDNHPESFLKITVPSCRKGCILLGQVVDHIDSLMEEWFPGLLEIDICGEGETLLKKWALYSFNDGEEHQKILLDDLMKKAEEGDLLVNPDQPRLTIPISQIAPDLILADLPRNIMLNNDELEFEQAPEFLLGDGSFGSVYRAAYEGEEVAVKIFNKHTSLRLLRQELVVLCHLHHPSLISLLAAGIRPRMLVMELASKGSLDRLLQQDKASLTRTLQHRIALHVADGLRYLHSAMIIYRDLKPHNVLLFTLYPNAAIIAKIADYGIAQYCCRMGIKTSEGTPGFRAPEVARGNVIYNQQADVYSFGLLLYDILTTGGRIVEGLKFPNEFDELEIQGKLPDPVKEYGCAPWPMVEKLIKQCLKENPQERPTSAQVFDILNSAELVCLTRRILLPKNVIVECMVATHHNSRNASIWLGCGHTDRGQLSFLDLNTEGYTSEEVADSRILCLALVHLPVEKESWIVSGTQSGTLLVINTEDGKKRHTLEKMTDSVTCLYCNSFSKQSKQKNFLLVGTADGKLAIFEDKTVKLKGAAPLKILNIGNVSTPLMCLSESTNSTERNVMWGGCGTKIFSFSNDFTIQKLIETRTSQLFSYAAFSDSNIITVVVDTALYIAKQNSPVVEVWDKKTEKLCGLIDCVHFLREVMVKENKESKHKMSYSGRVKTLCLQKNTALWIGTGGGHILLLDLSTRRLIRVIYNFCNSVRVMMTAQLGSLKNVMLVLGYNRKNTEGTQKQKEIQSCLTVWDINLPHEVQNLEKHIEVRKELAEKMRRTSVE
UniProt Q93009: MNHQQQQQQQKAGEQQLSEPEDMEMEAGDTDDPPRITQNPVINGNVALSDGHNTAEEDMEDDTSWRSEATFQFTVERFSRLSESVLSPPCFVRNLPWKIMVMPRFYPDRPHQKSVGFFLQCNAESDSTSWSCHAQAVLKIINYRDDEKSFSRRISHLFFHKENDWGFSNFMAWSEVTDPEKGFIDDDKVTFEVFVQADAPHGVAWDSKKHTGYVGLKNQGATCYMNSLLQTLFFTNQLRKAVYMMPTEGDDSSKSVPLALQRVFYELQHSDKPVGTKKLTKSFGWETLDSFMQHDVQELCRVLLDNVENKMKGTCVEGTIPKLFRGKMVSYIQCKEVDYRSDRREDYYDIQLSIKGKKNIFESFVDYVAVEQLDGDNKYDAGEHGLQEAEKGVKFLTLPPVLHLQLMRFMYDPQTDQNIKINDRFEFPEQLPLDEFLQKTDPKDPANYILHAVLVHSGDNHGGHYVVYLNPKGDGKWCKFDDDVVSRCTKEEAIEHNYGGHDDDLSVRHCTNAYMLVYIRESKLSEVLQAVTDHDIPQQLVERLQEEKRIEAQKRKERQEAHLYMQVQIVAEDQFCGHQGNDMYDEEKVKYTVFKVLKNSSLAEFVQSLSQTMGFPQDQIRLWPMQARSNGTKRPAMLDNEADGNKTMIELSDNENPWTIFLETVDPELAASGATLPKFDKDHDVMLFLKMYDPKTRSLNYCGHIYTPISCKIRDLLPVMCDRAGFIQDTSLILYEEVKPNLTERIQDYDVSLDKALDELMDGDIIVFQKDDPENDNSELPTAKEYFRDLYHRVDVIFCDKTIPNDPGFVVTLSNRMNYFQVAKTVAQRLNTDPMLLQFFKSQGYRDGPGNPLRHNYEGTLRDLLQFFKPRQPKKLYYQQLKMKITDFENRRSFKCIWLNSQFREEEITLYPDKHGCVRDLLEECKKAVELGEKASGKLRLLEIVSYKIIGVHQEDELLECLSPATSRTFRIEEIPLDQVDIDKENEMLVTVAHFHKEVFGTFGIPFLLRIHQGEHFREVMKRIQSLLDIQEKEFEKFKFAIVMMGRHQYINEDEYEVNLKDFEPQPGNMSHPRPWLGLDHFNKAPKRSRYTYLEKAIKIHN
UniProt O15379: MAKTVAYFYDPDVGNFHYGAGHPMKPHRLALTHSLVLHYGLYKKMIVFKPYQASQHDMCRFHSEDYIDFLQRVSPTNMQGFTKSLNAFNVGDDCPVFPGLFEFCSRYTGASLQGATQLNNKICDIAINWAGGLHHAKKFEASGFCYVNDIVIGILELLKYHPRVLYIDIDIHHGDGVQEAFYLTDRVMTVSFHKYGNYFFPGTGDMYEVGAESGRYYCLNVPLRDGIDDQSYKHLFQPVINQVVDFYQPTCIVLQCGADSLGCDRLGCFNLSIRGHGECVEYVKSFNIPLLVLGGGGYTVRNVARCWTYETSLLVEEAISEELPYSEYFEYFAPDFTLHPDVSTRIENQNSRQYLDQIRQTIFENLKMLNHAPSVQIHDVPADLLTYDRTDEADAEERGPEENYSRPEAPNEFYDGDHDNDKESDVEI

The target in test [1] is Myc- and 6xHis-tagged WT LRRK2 (leucine-rich repeat kinase 2) (UniProt Q5S007). Put plainly: co-IP; HEK293 lysates expressing WT LRRK2 and full-length USP7 or the USP7 deletion mutants D1-D4 (Fig. S1B); antibody of the IP not given.
Test [2] shares this target. Kind of test: co-IP; THP-1 cells transfected 24 h with Myc-LRRK2 alone or with Flag-USP7; IP with anti-Myc, blot with anti-Flag; 1% NP-40 lysis buffer (50 mM Tris pH 7.5, 150 mM NaCl, 10% glycerol), overnight 4 °C.
The target is the same in test [3]. Kind of test: co-IP; HEK293 cells transfected 24 h with Myc-LRRK2 alone or with Flag-USP7; IP with anti-Myc or anti-Flag; 1% NP-40 lysis buffer, overnight 4 °C.
The target is the same in test [4]. Kind of test: pull-down; lysates of HEK293 cells co-transfected with LRRK2-Myc/6xHis and HA/Flag-USP7; Ni-NTA beads 1 h at 4 °C, washes with 10 and 25 mM imidazole (500 mM NaCl, 0.5% Triton X-100), elution with 250 mM imidazole.
Test [5] shares this target. Put plainly: pull-down; lysates of HEK293 cells co-transfected with LRRK2-Myc/6xHis and HA/Flag-USP7; Co2+ TALON magnetic beads, manufacturer's protocol.
Test [6] has as its target endogenous USP7 (ubiquitin-specific protease 7) (human (endogenous in THP-1, HEK293, SH-SY5Y)) (UniProt Q93009). Put plainly: co-IP; endogenous proteins, HEK293 lysate; IP with anti-LRRK2 (Fig. 2E) or anti-USP7 (Fig. 8B), IgG as control; 1% NP-40 lysis buffer, overnight 4 °C.
The target in test [7] is endogenous LRRK2 (leucine-rich repeat kinase 2) (human (endogenous in THP-1, HEK293, SH-SY5Y)) (UniProt Q5S007). Put plainly: proximity ligation; Duolink PLA kit, primary antibodies against endogenous LRRK2 and USP7; cell line not named.
The target is the same in test [8]. Put plainly: co-IP; endogenous proteins, HEK293 lysate; IP with anti-LRRK2 (Fig. 2E) or anti-USP7 (Fig. 8B), IgG as control; 1% NP-40 lysis buffer, overnight 4 °C.
Test [9] deals with Flag-tagged WT HDAC3 (histone deacetylase 3) (UniProt O15379). Kind of test: co-IP; HEK293 cells transfected 24 h with Flag-HDAC3-WT; IP with anti-Flag, blot for endogenous USP7.
The target of test [10] is endogenous LRRK2 (leucine-rich repeat kinase 2) (human (endogenous in THP-1, HEK293, SH-SY5Y)) (UniProt Q5S007). Put plainly: co-IP; endogenous proteins, SH-SY5Y lysate; IP with anti-LRRK2, IgG as control; 1% NP-40 lysis buffer, overnight 4 °C.
For test [11] the target is unchanged. Put plainly: co-IP; endogenous proteins, THP-1 whole cell lysate; IP with anti-LRRK2 or anti-USP7, IgG as control; 1% NP-40 lysis buffer, overnight 4 °C.

Results are given in words; binding and its absence hold for the method and conditions named. Binding seen in cells or lysates may run through a third protein. Some entries that bind do so weakly or less than the wild type.

In the case of “Flag-USP7 1-208 (TRAF domain) (from UniProt Q93009 1-208) (domain or fragment)”, the binding entry in test [1] is given as “binds”. As for “Flag-USP7 206-560 (catalytic domain) (from UniProt Q93009 206-560) (domain or fragment)”, the binding result in test [1] is “no binding”. As to “Flag-USP7 560-776 (first two UBL subdomains, U1+U2) (from UniProt Q93009 560-776) (domain or fragment)”, the binding result in [1] is “no binding”. As for “Flag-USP7 776-1102 (last three UBL subdomains, U3-U5) (from UniProt Q93009 776-1102) (domain or fragment)”, the binding result in test [1] is reported as “binds”. On to “Flag-tagged human WT USP7 (ubiquitin-specific protease 7) (from UniProt Q93009 1-1102) (enzyme)”, for which the binding entry in test [2], in test [3] and in [1] was “binds” each time.

Consider “HA/Flag-tagged USP7 (from UniProt Q93009 1-1102) (enzyme)”, for which the binding entry in test [4] and in test [5] was “binds” each time. Regarding “endogenous HDAC3 (histone deacetylase 3) (from UniProt O15379 1-428) (enzyme)”, in test [6], the binding result is listed as “no binding”. On to “endogenous USP7 (ubiquitin-specific protease 7) (from UniProt Q93009 1-1102) (enzyme)”, for which the binding entry was “binds” in test [7]; “binds” in test [8]; “no binding” in test [9]; “binds” in [10]; “binds” in test [11].
